No constants are given. Whether binding was seen depends on the method and setting. For part of these data: In cells and extracts the contact can be indirect. Some results given as binding are weak or reduced against the parent protein; the word gives no strength. Where a sequence is shown, tags or fusion partners need not be part of it. Each block holds one binder with its values, some of them ahead of it.
Columns and labels:
[1] = biological target: T1, NPR3 fused with the DNA binding domain (BD) (Arabidopsis) (UniProt Q8L746); experiment: two-hybrid; AD-JAZ (pGADT7, AH109) mated with BD-NPR3 or its derivatives (pGBKT7, Y187); growth on SD-Leu-Trp-His-Ade plates with 100 μM SA
T1 sequence: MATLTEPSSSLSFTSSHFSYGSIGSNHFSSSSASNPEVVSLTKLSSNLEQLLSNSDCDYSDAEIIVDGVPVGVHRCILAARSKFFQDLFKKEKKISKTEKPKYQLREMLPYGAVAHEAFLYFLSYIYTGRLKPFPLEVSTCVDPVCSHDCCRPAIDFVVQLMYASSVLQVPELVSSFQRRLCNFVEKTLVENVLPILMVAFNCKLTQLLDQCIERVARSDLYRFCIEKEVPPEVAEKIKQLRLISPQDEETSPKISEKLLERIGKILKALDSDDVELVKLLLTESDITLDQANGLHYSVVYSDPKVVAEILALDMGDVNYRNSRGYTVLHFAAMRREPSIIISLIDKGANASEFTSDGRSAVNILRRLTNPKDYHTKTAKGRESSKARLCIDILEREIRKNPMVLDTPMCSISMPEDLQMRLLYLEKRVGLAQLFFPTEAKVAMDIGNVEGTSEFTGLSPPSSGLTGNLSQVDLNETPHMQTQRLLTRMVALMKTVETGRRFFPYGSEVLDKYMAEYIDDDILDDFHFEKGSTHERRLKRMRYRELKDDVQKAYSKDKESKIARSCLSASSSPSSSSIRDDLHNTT

[2] = biological target: T2, NPR4 fused with the DNA binding domain (BD) (Arabidopsis) (UniProt Q5ICL9); experiment: two-hybrid; AD-JAZ (pGADT7) mated with BD-NPR4 (pGBKT7); SD-Leu-Trp-His-Ade plates without and with 100 μM SA; the text does not tell on which plates each result was seen
T2 sequence: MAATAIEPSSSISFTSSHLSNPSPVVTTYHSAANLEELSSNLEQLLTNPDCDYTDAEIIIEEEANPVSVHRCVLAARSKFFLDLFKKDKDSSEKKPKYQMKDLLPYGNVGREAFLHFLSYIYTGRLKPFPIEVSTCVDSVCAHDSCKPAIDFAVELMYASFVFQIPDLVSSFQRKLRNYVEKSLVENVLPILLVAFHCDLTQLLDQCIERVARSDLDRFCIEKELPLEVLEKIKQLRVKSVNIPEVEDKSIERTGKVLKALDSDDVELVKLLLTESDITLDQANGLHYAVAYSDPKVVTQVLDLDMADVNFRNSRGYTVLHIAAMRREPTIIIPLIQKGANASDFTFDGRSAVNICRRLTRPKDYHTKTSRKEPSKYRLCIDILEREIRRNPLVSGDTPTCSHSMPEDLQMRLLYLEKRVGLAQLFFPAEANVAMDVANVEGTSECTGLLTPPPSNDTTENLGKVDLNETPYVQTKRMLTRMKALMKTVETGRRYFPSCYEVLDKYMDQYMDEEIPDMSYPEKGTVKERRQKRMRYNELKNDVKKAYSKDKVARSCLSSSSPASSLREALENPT

[3] = biological target: T1, NPR3 fused with the DNA binding domain (BD) (Arabidopsis); experiment: two-hybrid; AD-JAZ (pGADT7, AH109) mated with BD-NPR3 or its derivatives (pGBKT7, Y187); growth on SD-Leu-Trp-His-Ade plates without SA
NPR4-nLuc (Arabidopsis) = biological target: T3, NPR4-nLuc (Arabidopsis) (UniProt Q5ICL9); experiment: split reporter; split luciferase; cLuc-JAZ and NPR3-nLuc or NPR4-nLuc transiently co-expressed in N. benthamiana leaves for 2 days; 1 mM luciferin; images 0 and 3 h after 1 mM SA treatment
T3 sequence: T2 sequence

NPR3-nLuc (Arabidopsis) = biological target: T4, NPR3-nLuc (Arabidopsis) (UniProt Q8L746); experiment: as above
T4 sequence: T1 sequence

binding [1]: binds
binding [2]: binds
binding [3]: binds
B1: JAZ4 fused with the transcriptional activation domain (AD) (protein, UniProt Q58G47 1-310)
chain: MERDFLGLGSKLSPITVKEETNEDSAPSRGMMDWSFSSKVGSGPQFLSFGTSQQETRVNTVNDHLLSSAAMDQNQRTYFSSLQEDRVFPGSSQQDQTTITVSMSEPNYINSFINHQHLGGSPIMAPPVSVFPAPTTIRSSSKPLPPQLTIFYAGSVLVYQDIAPEKAQAIMLLAGNGPHAKPVSQPKPQKLVHHSLPTTDPPTMPPSFLPSISYIVSETRSSGSNGVTGLGPTKTKASLASTRNNQTAAFSMAPTVGLPQTRKASLARFLEKRKERVINVSPYYVDNKSSIDCRTLMSECVSCPPAHHLH

binding (NPR4-nLuc (Arabidopsis)): binds
binding (NPR3-nLuc (Arabidopsis)): binds
B2: JAZ4 fused with the C-terminal half of luciferase (cLuc) (protein, UniProt Q58G47 1-310)
chain: B1 chain

binding [1]: binds
B3: JAZ10 fused with the transcriptional activation domain (AD) (protein, UniProt Q93ZM9 1-197)
chain: MSKATIELDFLGLEKKQTNNAPKPKFQKFLDRRRSFRDIQGAISKIDPEIIKSLLASTGNNSDSSAKSRSVPSTPREDQPQIPISPVHASLARSSTELVSGTVPMTIFYNGSVSVFQVSRNKAGEIMKVANEAASKKDESSMETDLSVILPTTLRPKLFGQNLEGDLPIARRKSLQRFLEKRKERLVSTSPYYPTSA
binding [3]: no binding (condition: without SA in the yeast medium)

binding [1]: binds
binding [3]: binds
B4: JAZ9 fused with the transcriptional activation domain (AD) (protein, UniProt Q8W4J8 1-267)
chain: MERDFLGLSDKQYLSNNVKHEVNDDAVEERGLSTKAAREWGKSKVFATSSFMPSSDFQEAKAFPGAYQWGSVSAANVFRRCQFGGAFQNATPLLLGGSVPLPTHPSLVPRVASSGSSPQLTIFYGGTISVFNDISPDKAQAIMLCAGNGLKGETGDSKPVREAERMYGKQIHNTAATSSSSATHTDNFSRCRDTPVAATNAMSMIESFNAAPRNMIPSVPQARKASLARFLEKRKERLMSAMPYKKMLLDLSTGESSGMNYSSTSPT

binding (NPR4-nLuc (Arabidopsis)): binds
binding (NPR3-nLuc (Arabidopsis)): binds
B5: JAZ9 fused with the C-terminal half of luciferase (cLuc) (protein, UniProt Q8W4J8 1-267)
chain: B4 chain

binding (NPR4-nLuc (Arabidopsis)): binds
binding (NPR3-nLuc (Arabidopsis)): binds
B6: JAZ8 fused with the C-terminal half of luciferase (cLuc) (protein, UniProt Q8LBM2 1-131)
chain: MKLQQNCDLELRLFPTSYDSDSSDTTSVVESTSSGNPQPNEESQRITIFYNGKMCFSSDVTHLQARSIISIASREMKTKSSSNGSDPPNKSTSFHHNQLPNPKASMKKSLQSFLQKRKIRIQATSPYHSRR

binding [1]: binds
B7: JAZ8 fused with the transcriptional activation domain (AD) (protein, UniProt Q8LBM2 1-131)
chain: B6 chain
binding [3]: no binding (condition: without SA in the yeast medium)

binding [1]: binds
binding [2]: binds
B8: JAZ11 fused with the transcriptional activation domain (AD) (protein, UniProt Q9M246 1-238)
chain: MAEVNGDFPVPSFADGTGSVSAGLDLLVERSIHEARSTEPDASTQLTIIFGGSCRVFNGVPAQKVQEIIRIAFAGKQTKNVTGINPALNRALSFSTVADLPIARRRSLQRFLEKRRDRSTKPDGSMILPSQLTIIFGGSFSVFDGIPAEKVQEILHIAAAAKATETINLTSINPALKRAISFSNASTVACVSTADVPIARRRSLQRFFEKRRHRFVHTKPYSATTSEADKNETSPIVT
binding [3]: no binding (condition: without SA in the yeast medium)

Source: PMC5062614
